From the RNAGym collection of RNA variant scans (doi:10.7554/elife.90254)
The source gives no read counts; variants with many changes may rest on few reads.

B1: LINE1-mini (parent)
chain: GGCAGAGCUCAACACAGCGUGGCAAAGUGGCUGUGGCUAGACUGCC

Variants of: B1
Assay: self-cleavage, relative activity (ratio to wild type); higher = more cleavage; in vitro, sequencing; the parent is a self-cleaving ribozyme

Variant	self-cleavage
GGCAGAGAUCAACAGAGCGUGGCAGAGUGGCUGUGGCUAGACUGCC [C8A C15G A25G]	0.2
GGCAGAGCUCAACACAGCGUAGCAAAGUGUCUGGGGCUAGACUGCC [G21A G30U U34G]	0.04
GGCAGAGCUCAACACUGCGUGGCAAAGUCGCUGUGGCUAGACUUCC [A16U G29C G44U]	0.04
GGCAGAGCUCAACACAGCGUGGCAGAAUGGCUGUGGCUUGACUGCC [A25G G27A A39U]	0.52
GGUAGAGCACAACACAGCGUGGCAAAGUGGCUGUGGCUAUACUGCC [C3U U9A G40U]	0.01
GGCAGAGCUCAACACAGCGGGGCAAACUGGCUGUGGCUAGGCUGCC [U20G G27C A41G]	0.34
GCCAGAUCUCAACGCAGCGUGGCAAAGUGGCUGUGGCAAGUCUGCC [G2C G7U A14G U38A A41U]	0.06
GGCAGAGAUCAACACAGCGUGGCAAAGUGGCUGCAGCUAGACUGCC [C8A U34C G35A]	0.02
GGCAGAUCUCAACAUAGCGUGGCAAAGUGGCUAUGGCUAGACUGCC [G7U C15U G33A]	0.07
GGAAGAGCUCAAAACAGCCUGGCAAAGUGGCUGUGGCUAGACUGCC [C3A C13A G19C]	0.46
GGCAGAGCUCAACACAGCCUGGCAAAGCAGCUGUGGCUAGACUGCU [G19C U28C G29A C46U]	2.95
CGCAGAGCUCAACACACCGUGGCAACGUGGCUGUCGCUAGACUGCC [G1C G17C A26C G35C]	0.02
GGGAGAGCUCUACUCAGCGUGGCAAAGUGGCUGUGUCUAGACUGGC [C3G A11U A14U G36U C45G]	0.06
GGCAGAGCUCAAAACAGCGUGGCAAAGUGGCUGUGGUUAGACGGGC [C13A C37U U43G C45G]	0.1
GGCAUAGCUGAAUACAGCGUGGCAAAGUGGCUGUGGCUAGACUGCC [G5U C10G C13U]	0.01
GGCAGAGCUCAACACAGCGUGGUAAAGUGUAAGUAGCUAGACUGCC [C23U G30U C31A U32A G35A]	0.02
GGCAGAGCUCAACACAGCGUGGCAAAGUGGCUGUGGGCAGAGUGCC [C37G U38C C42G]	0.01
GCGACAGCUCAACACAGCGUGGGAAAGUGGCUGGGGCUAGACUGCC [G2C C3G G5C C23G U34G]	0.05
GGCAGAGCUCAACACAGCGUGGCAAAGUGCCUGUGGCUAGAUUGCG [G30C C42U C46G]	0.08

Variant	self-cleavage
GGCAGAGUGCCUCAUAGCGUGGCAAAGUGGCUGUGGCUAGACUGCC [C8U U9G A11C A12U C15U]	0.01
GGCAGAGCUCAACAAAGCGUGUCAUAGUGGCUGUGGCUAGACUGCC [C15A G22U A25U]	0.03
CGCAGGACUCAACACAGCGUGGCAAAGUCGCUCUGGCUAGACUGCC [G1C A6G G7A G29C G33C]	0.01
GGCUGAGCUCAACAUUGCUUGGCAAAGUGGCUGUGGCUAGACUGCC [A4U C15U A16U G19U]	0.03
GGCAGAGCUCAACAUAGCGUGGCAAAGUGGCAGUAGCUUGACUGCC [C15U U32A G35A A39U]	0.06
GGCAGAGCUCAACAGAGCCUGGCAAAGUGGCUGUGACUAGACUGCC [C15G G19C G36A]	0.06
GGCACAGCUCAACACAUCGUUGCAAAGUGGCUGUGGCUAGACUGCC [G5C G17U G21U]	0.04
GGCAGAGCUUAACACAGCGUGGCAAAAUGGCUUUGGCUUGACUGCA [C10U G27A G33U A39U C46A]	0.04
GGGAGAGCUCAACACAGCGAGGCCCAGUGGCUGUGGCUAGACUGCC [C3G U20A A24C A25C]	0.09
UGCAGAGCUCAACCCAGCGUGGCAAAGUGGCGUUGGCUAGACUGUC [G1U A14C U32G G33U C45U]	0.04
GGCAGAGCUCAACACAGCAUUGCAUAGUGGCUGUGGCUAGACAGCC [G19A G21U A25U U43A]	0.02
GACAGAGCUCAACACAGCUUGGCAAAUUGGCUGUGACUAGACAGCC [G2A G19U G27U G36A U43A]	0.26
AACAGAGCUGAACACAGCGUGUCAAAGUGGCUGUGGCUAGACUGCC [G1A G2A C10G G22U]	0.2
GGCAGAACUCAACACAGCGUGGCGAAGUGGCUGUGGUUAGUCUGCC [G7A A24G C37U A41U]	0.03
AGCAGAGCCCAACGCAGCGUGGCAAAGUGGCUGUGGCUAGACUGCC [G1A U9C A14G]	0.07
GGCAGAGCUCAACACAGAGUGCAAAAGUGGCUGUGGCUAGACUGCC [C18A G22C C23A]	1.22
GGCAGAUCUCAACACAGCGUUGCAAAGUGGCUGUGACUAGACUGCC [G7U G21U G36A]	0.13
GGCACAGCUCAACACAGUCUGGCAAAGUGGCUGUGGCUUGACUGCC [G5C C18U G19C A39U]	0.04
GGCAGAGUUCAACAUAGAGUGGCAUAGUAGCUGUGGCUAGAGUGCC [C8U C15U C18A A25U G29A C42G]	0.18

Variant	self-cleavage
GGCAGAGCUAAACUCAGCGUGGCAAAGUGGCUGUGACUAGACUGCC [C10A A14U G36A]	0
GGCAGAUCUCAACACAGCGUGGAAAUGUGGCUGUGGCUAGUCUGCC [G7U C23A A26U A41U]	0.1
GCCAGAGCUCAAUACAGCGUGGCAUAGAGGCUGUGGCUAGUCUGCC [G2C C13U A25U U28A A41U]	0.02
GCCAGAGCUCAACACAGCCUGGUAAAGCGGCUGUGGCGAGACUGCC [G2C G19C C23U U28C U38G]	0.1
GGCAGAGGUCAACACGGCGUGGCAAAGUGGCUGUGGCUUGACUGCC [C8G A16G A39U]	0.04
GGCAGAGCUCAACACAGAGUAGCUAAGUGACUGUGGCUAGACCGCC [C18A G21A A24U G30A U43C]	2.9
GGCAGAGCUCACCACAGCGUGCCAAAGUGACUGUGUUUAGACUGCA [A12C G22C G30A G36U C37U C46A]	0.03
GCAAGGGCUCAACACAGCGUGGCAAAGUGGCUGUGGCUAAACUGCC [G2C C3A A6G G40A]	0.03
GGCAGACCUCAUCAAAGCGCGGGAAAGUGGCUGUGGCUAGACUGCC [G7C A12U C15A U20C C23G]	0.07
GGCAGAGCUCUACACAGCGUGGCAAAGUGGCUGUGGCUUGAUUGCC [A11U A39U C42U]	0.03
GACAGAGCUCAUCUCAGCAUGGCAAAGUGGCUGUGGCUAGACUGCC [G2A A12U A14U G19A]	0.04
GGCAGAGCUCAACACAGCGUGGCAAAGUGGUUGUGGUUAUACUGCC [C31U C37U G40U]	0.02
GGAAGAGCUGAACACAGGGUGGCAAAGUGGCUGUGGCUAGACUGCC [C3A C10G C18G]	0.03
GGCACAGCUAUACACAUCCUGGCAAACUGGCUGUGGCUAGACUGCC [G5C C10A A11U G17U G19C G27C]	0.02
GGCAGAGCUCAACUCAGCGUUGCAAAGUGGCGGCGGCUAGACUGCC [A14U G21U U32G U34C]	0.04
GGCAGAGCUAAACACAGCGUGGCAAAGUUGCUGUGGCUAGACUACC [C10A G29U G44A]	0.01
GGCAUAGCUCAUCACAGCGUGGCAAUGUGGCUGUGCCUAGACUGCC [G5U A12U A26U G36C]	0.03
GACAGAGCUCAACACAGCGUGGCAAAGUGCAUGUGGCUAGACUGCA [G2A G30C C31A C46A]	0.14
